According to PMC4894954:
Results are given in words; binding and its absence hold for the method and conditions named. For some assays here: Binding seen in cells or lysates may run through a third protein. Some results given as binding are weak or reduced against the parent protein; the word gives no strength.

Chains of the proteins cited; added tags and fusions are not shown.
UniProt O14777: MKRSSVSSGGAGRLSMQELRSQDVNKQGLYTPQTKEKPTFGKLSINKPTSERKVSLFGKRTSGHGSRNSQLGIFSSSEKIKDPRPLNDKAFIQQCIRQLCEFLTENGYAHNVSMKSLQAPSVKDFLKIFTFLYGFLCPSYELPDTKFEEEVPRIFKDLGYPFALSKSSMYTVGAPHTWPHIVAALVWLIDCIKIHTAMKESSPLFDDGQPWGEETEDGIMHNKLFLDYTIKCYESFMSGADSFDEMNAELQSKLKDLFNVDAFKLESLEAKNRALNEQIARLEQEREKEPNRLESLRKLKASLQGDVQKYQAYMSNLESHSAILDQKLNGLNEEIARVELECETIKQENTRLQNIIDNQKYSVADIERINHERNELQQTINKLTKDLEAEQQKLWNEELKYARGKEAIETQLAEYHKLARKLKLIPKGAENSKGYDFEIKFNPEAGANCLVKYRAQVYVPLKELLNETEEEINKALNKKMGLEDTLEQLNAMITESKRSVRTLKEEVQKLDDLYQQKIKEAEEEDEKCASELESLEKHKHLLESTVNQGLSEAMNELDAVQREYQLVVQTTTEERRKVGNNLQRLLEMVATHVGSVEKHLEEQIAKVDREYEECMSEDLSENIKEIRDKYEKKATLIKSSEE

How the values were obtained:
[1] = molecular target: Ska1–GFP (UniProt Q96BD8); test: co-IP; Ska1–GFP immunoprecipitated with GFP antibody and protein G agarose beads from Ska1–GFP HeLa cell lysate; Western blot for Ska1–GFP, EB1 and Hec1
[2] = molecular target: EB1c–GST (human) (UniProt Q15691); test: pull-down; purified EB1–GST, EB1c–GST or free GST on glutathione Sepharose beads incubated with lysate of synchronized mitotic HeLa cells; Western blot; in one experiment cells treated with nocodazole followed by MG-132; only the target purified
[3] = molecular target: EB1–GST (full length) (human) (UniProt Q15691); test: as above
[4] = molecular target: EB1 (endogenous) (human (endogenous in HeLa)) (UniProt Q15691); test: co-IP; EB1 immunoprecipitated with mouse monoclonal EB1 antibody from lysates of double thymidine-synchronized mitotic shake-off HeLa cells; Western blot for EB1, Ska1 and Hec1; rabbit and mouse IgG as control
[5] = molecular target: His-tagged Ska1 (human) (UniProt Q96BD8); test: SEC; Superose 12 column at 4 °C; purified EB1, Ska1 or their equimolar mixture loaded; 200 μl fractions analysed by Western blot; both purified

Substance	binding [1]	binding [2]	binding [3]	binding [4]	binding [5]
EB1 (endogenous) (from UniProt Q15691 1-268)	binds				
Ska1 (endogenous) (from UniProt Q96BD8 1-255)		binds	binds	binds	
Hec1 (Ndc80) (endogenous) (from UniProt O14777 1-642)		binds	binds	binds	
His-tagged Ska1 (from UniProt Q96BD8 1-255)					no binding
